The whole screen tested about 71,000 compounds, of which about 1,800 (2.5%) were called active. The shares of active, inactive and inconclusive entries below differ from those in the screen. Calls come from the whole dose curve; as a rule, active = well fitted activation curve with a large enough effect in the signal ratio, with a control signal flat (not every such curve was filed as active); inconclusive = small, poorly fitted or top-dose-only effect, or effect the other way, or a change in a side signal; inactive = flat fitted curve, though single readings scatter; the % refers to the signal ratio. Where the call is inconclusive, the potency comes from a doubtful curve fit.
Test: Cell signaling CRE-BLA (Fsk stim); for activity change, negative = inhibition: % of control where 0% means no effect
Settings: CHO CRE-bla reporter (cAMP response element driving beta-lactamase), forskolin EC10, beta-lactamase ratio; activity change, negative = inhibition: at 38.2 µM (top of the series) unless noted
Summary of the method: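 Titrated compounds plus EC10 NKH 477 on CHO CRE-bla cells, 3 h, 37 °C. CCF4, 2 h RT. Ratio 460/530 nm → AC50.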
Potency is the fitted concentration of half-maximal effect; tags give direction and shape of the fitted curve.

Row | Structure (SMILES) | activity change, negative = inhibition | Potency
1 | Cc1ccc(C)c(Cn2nnc3c(=O)[nH]c(C4CCCN(C(=O)C5CCC5)C4)nc32)c1 (stereo not given) | inconclusive: 26.3% | –
2 | CC(=O)C(C)Oc1ccc2c3c(c(=O)oc2c1)CCCCC3 (stereo not given) | – | inconclusive: 5.01 µM [rising, partial curve]
3 | CCS(=O)(=O)Nc1cc(-c2nc3cccnc3s2)ccc1C | – | inconclusive: 10 µM [rising, partial curve]
4 | COc1ccc(C)cc1-n1nnnc1SCC(=O)c1cc(C)n(Cc2ccco2)c1C | inconclusive: -12.1% | –
5 | CS(=O)(=O)N1CCC(C(=O)Nc2ccc(Cl)c(C(F)(F)F)c2)CC1 | inconclusive: 5% | –
6 | CCOC(=O)c1c(C)nc(-c2ccccc2)nc1NC(C)=O | inactive | –
7 | CCC(C)(C)OC | inactive | –
8 | C/C=C/C=C/C=O | inconclusive: -19.9% | –
9 | COC(=O)c1ccc(CSc2nc3ccccc3c(=O)n2-c2cccc(OC)c2)o1 | – | active: 5.01 µM
10 | COc1ccc(-c2nnc3sc(-c4ccco4)nn23)cc1OC | inconclusive: -12.5% | –
11 | O=c1cnc2cncnc2n1Cc1ccc(F)cc1 | – | active: 3.16 µM
12 | O=C1C(c2ccc(F)cc2)N(Cc2ccc3c(c2)OCO3)C(=O)CN1C1CCCC1 (stereo not given) | – | inconclusive: 20 µM [falling, single point]
13 | Cn1cc(Cl)c(C(=O)N2CCN(c3ncccn3)CC2)n1 | inactive | –
14 | O=C(CNC(=O)C1CCCCC1)NCCCO | inconclusive: 20.6% [at 7.6 µM] | –
15 | CSc1ccc2nnc(-c3cccc(F)c3)n2n1 | – | inconclusive: 10 µM [rising, single point]
16 | COc1ccccc1CCn1c(=O)c(-c2cc(F)cc(F)c2)nc2cncnc21 | – | inconclusive: 7.94 µM [rising, partial curve]
17 | CC(C)n1c(CCCO)nc2ccccc21 | inconclusive: -14.3% [at 7.6 µM] | –
18 | O=c1[nH]c(=O)n(Cc2ccccc2)c2nc(-c3ccco3)cc(C(F)(F)F)c12 | – | active: 2.51 µM
19 | N#CCCn1c(=O)c(-c2cccs2)nc2cnc(Nc3ccccc3)nc21 | inconclusive: 9.45% | –
20 | O=C(Nc1ccc2c(c1)ncn2C1CCCCC1)c1ccco1 | inconclusive: 16.7% | –
21 | Cc1ccc(Cn2c(SCc3cccnc3)nc3c2c(=O)n(C)c(=O)n3C)cc1 | inconclusive: 14.6% | –
22 | CC(C)=CCc1c2c(c3occ(-c4ccc(O)c(O)c4)c(=O)c3c1O)C=CC(C)(C)O2 | inconclusive: -7.25% [at 7.6 µM] | –

Row | Structure (SMILES) | activity change, negative = inhibition | Potency
23 | CC1=CC(C)(C)N2C(=O)C3(N=C(N)NC(Nc4ccccc4)=N3)c3cc(C)cc1c32 (stereo not given) | inactive | –
24 | c1c2c(cc3sc(N4CCCCC4)nc13)OCO2 | – | inconclusive: 25.1 µM [rising, single point]
25 | CN(C)c1ccc(NC(=O)CSCc2nc3c(nnn3Cc3ccc(F)cc3)c(=O)[nH]2)cc1 | – | inconclusive: 0.00316 µM [falling, full curve, poor fit]
26 | CC(C)OCCCNc1nc2c([nH]1)c(=O)n(C)c(=O)n2C | inconclusive: 22.1% | –
27 | CCCn1c(=O)c(C)cn2nc(N)nc12 | – | active: 12.6 µM
28 | COCCCn1c(CCC(=O)O)ccc1-c1cccs1 | – | inconclusive: 10 µM [rising, single point]
29 | C[C@H]1C[C@@H]2[C@H]3CCC4=CC(=O)C=C[C@@]4(C)[C@@]3(Cl)[C@@H](O)C[C@]2(C)[C@]1(OC(=O)c1ccco1)C(=O)CCl | inconclusive: -2.91% [at 17.1 µM] | –
30 | COC(=O)c1ccc(NC(=O)C2CCCN2S(=O)(=O)c2ccc(C)cc2)cc1 (stereo not given) | inactive | –
31 | COc1ccc(Nc2nc(-c3sc(N)nc3C)cs2)cc1 | inactive | –
32 | C=CCn1c(=N)n(CC(=O)O)c2ccccc21 | inactive | –
33 | O=C(O)CCc1ccc(-c2cccs2)n1Cc1ccco1 | inactive | –
34 | CN(C)c1ncc2nc(-c3cccc(C#N)c3)c(=O)n(C)c2n1 | inconclusive: 16.6% | –
35 | C/C(Cl)=C\Cn1c(Nc2ccccc2)nc2c1c(=O)n(C)c(=O)n2C | inconclusive: 24.8% | –
36 | Cc1c(C(=O)Nc2ccc(F)cc2)oc2ccc(S(=O)(=O)N3CCC4(CC3)OCCO4)cc12 | inactive | –
37 | CCCCN(CCCNC(=O)CN1C(=O)COc2ccccc21)c1ccccc1 | inconclusive: -32% | –
38 | CCCCCCSC1=C(C#N)C(c2ccc(C)o2)CC(=O)N1 (stereo not given) | inactive | –
39 | Cn1c(/N=C/c2cc(Cl)ccc2O)nc2ccccc21 | inconclusive: -15.3% | –
40 | O=C(c1csnn1)N1CCC[C@@]2(CCN(Cc3cc(C(F)(F)F)cc(C(F)(F)F)c3)C2)C1 | inactive | –
41 | CCc1nnc(NC(=O)CCC(=O)N2CCN(Cc3cc(F)ccc3OC)CC2)s1 | inconclusive: 29.7% | –
42 | COc1ccccc1N1CCN(S(=O)(=O)c2ccc3c4c(cccc24)C(=O)N3)CC1 | inactive | –
43 | CCCn1c(C)cc(=O)c2cc(NC(=O)c3ccccn3)ccc21 | – | inconclusive: 10 µM [rising, partial curve]
44 | Cc1nn(C)c(C)c1S(=O)(=O)Nc1ccc2c(c1)OCO2 | inconclusive: -7.85% | –

Row | Structure (SMILES) | activity change, negative = inhibition | Potency
45 | CCOc1ccc(-c2nnc(-c3ccco3)o2)cc1OCC | – | inconclusive: 10 µM [rising, partial curve]
46 | O=C(c1ccco1)N1CCC(c2ccccc2)C1 (stereo not given) | inactive | –
47 | CCc1nc(Nc2ccc(N3CCN(C(C)=O)CC3)cc2)c2oc3ccccc3c2n1 | – | active: 1.26 µM
48 | CN1CCN(c2nc(-c3ccc4c(c3)OCO4)nc3ccccc23)CC1 | inconclusive: 24% | –
49 | COC(=O)c1ccc(CSc2nc3c(c(=O)n2-c2ccc(F)cc2)SCC3)o1 | – | inconclusive: 12.6 µM [rising, partial curve]
50 | COc1ccc(OC)c(C2/C(=C(\O)c3c(C)nc4ccccn34)C(=O)C(=O)N2CCCN(C)C)c1 (stereo not given) | – | active: 3.98 µM
51 | COc1ccc(OC)c(C(c2nnnn2CC2CCCO2)N2CCN(C3CCCC3)CC2)c1 (stereo not given) | inactive | –
52 | COc1ccc2cc1Oc1ccc(cc1)C[C@@H]1c3c(cc(OC)c4c3Oc3cc5c(cc3O4)CCN[C@H]5C2)CCN1C | inconclusive: 19.7% [at 7.6 µM] | –
53 | O=C(c1nc(-c2ccccc2)n(-c2ccccc2)n1)N1CCN(S(=O)(=O)c2ccccc2)CC1 | – | inconclusive: 5.01 µM [falling, single point]
54 | CCn1cc(C(=O)NCc2cccs2)c(=O)c2cc(S(=O)(=O)N3CCOCC3)ccc21 | – | active: 20 µM
55 | Cc1nnc(SCC(=O)N2CCc3ccccc32)s1 | inactive | –
56 | COc1ccc(CCN2CC(O)=C(c3nc4ccccc4c(=O)[nH]3)C2=N)cc1OC | inconclusive: 18.3% | –
57 | CN(CCO)c1ncnc2nc[nH]c12 | – | inconclusive: 10 µM [rising, partial curve]
58 | O=C(C1=C(O)C(=O)N(Cc2ccccc2)C1c1cccnc1)c1ccco1 (stereo not given) | inconclusive: 0.0133% | –
59 | Cc1oc(-c2cccc(Cl)c2)nc1CN1CCC(C(=O)NCc2cccnc2)CC1 | inconclusive: -14.5% | –
60 | Fc1ccc(N2CCN(C(c3cccs3)c3nnnn3CCc3ccccc3)CC2)cc1 (stereo not given) | inconclusive: 18% [cytotoxic] | –
61 | O=C(NC1=NCCS1)c1ccc(OCC2CCCO2)cc1 (stereo not given) | inconclusive: 0.165% | –
62 | COc1ccc(-c2nnc(Nc3nc4c(OC)cccc4s3)o2)cc1 | – | active: 12.6 µM
63 | COC(=O)/C=c1/sc2nc3ccccc3n2c1=O | inactive | –
64 | COc1ccc(C2CC(=O)c3cnc(NC(=O)c4ccccc4OC)nc3C2)c(OC)c1 (stereo not given) | – | inconclusive: 12.6 µM [rising, partial curve]
65 | CN(c1ccccc1)c1nc(-n2ccnc2)nc(-n2ccnc2)n1 | – | inconclusive: 12.6 µM [rising, partial curve]
66 | Cc1cccc(C)c1NC(=O)c1cc(S(=O)(=O)N2CCOCC2)ccc1F | inactive | –

Row | Structure (SMILES) | activity change, negative = inhibition | Potency
67 | CCn1cc(C(=O)NCCCOC)c2cc(OC)c(OC)cc2c1=O | – | inconclusive: 2.51 µM [rising, full curve]
68 | CCC(=O)c1cc(-c2nc3ccccc3n2C)n(C)c1 | inconclusive: 27.7% | –
69 | CN1CCN(c2ncc3nc(-c4ccccc4)c(=O)n(CCC#N)c3n2)CC1 | – | inconclusive: 2 µM [rising, full curve]
70 | CCC/C=C(\CCC)C(NC(=O)c1ccccc1)c1ccc(C(=O)OC)cc1 (stereo not given) | inactive | –
71 | COc1ccc(-c2c3c(nc4sc(C(=O)Nc5cc(C)on5)c(N)c24)CCC3)cc1 | inconclusive: 26.1% | –
72 | CCCn1c(C)nc2c(NCCN3CCCCC3)nc(C)nc21 | inactive | –
73 | N#Cc1nc(-c2cccs2)oc1NCc1ccco1 | inactive | –
74 | CC1Cc2ccccc2N1C(=O)Cn1c(=O)oc2cc(S(=O)(=O)N3CCCCC3)ccc21 (stereo not given) | inconclusive: 4.83% | –
75 | CSc1nc(N)nc(SC2C=CCCC2)c1C#N (stereo not given) | – | active: 12.6 µM
76 | COc1ccc2cc(C(c3nnnn3C3CCCC3)N3CCc4ccccc4C3)c(=O)[nH]c2c1 (stereo not given) | inconclusive: 19.6% | –
77 | O=C(c1ccco1)N1CCCC(c2ccccc2)C1 (stereo not given) | inactive | –
78 | CCOC(=O)c1cc(-c2nnc(-c3ccc(Oc4ccccc4)cc3)o2)c(C)nc1C | – | inconclusive: 1 µM [rising, full curve, poor fit]
79 | COc1cccc(-c2cc(C(=O)N3CCN(c4ncccn4)CC3)c3ccccc3n2)c1 | inconclusive: -10.2% | –
80 | CCN(CC)CCCCn1c(-c2ccccc2)nc2c(NCCOC)nc(C)nc21 | inactive | –
81 | CCOC(C)(C)C | inactive | –
82 | COCCCNC(CC(=O)Nc1ccccc1C(=O)OC)C(=O)O (stereo not given) | inactive | –
83 | Cc1cc(C)n2nc(SCc3cc(=O)n4ccccc4n3)nc2n1 | – | active: 1 µM
84 | COc1cc(-c2cc(=O)c3ccccc3o2)ccc1O | – | active: 2 µM
85 | Clc1ccc(OCc2nc(-c3ccccn3)n[nH]2)cc1 | inconclusive: 10.5% | –

From PubChem BioAssay AID662 (National Center for Advancing Translational Sciences (NCATS), 2007)
